Assay results as given in paper PMC4336329 (PLoS ONE, 2015).
Hit rate of the full screen: of about 310,000 compounds, about 2,200 (0.71%) showed an effect of 50% or more. The effect is printed as a negative number. This is one part of the list.

Biological target: human ether-à-go-go-related gene (hERG) potassium channel (human, UniProt Q12809)
Test: primary screen, population patch clamp on CHO cells stably expressing hERG

Sequence of human ether-à-go-go-related gene (hERG) potassium channel (Q12809 whole entry, looked up): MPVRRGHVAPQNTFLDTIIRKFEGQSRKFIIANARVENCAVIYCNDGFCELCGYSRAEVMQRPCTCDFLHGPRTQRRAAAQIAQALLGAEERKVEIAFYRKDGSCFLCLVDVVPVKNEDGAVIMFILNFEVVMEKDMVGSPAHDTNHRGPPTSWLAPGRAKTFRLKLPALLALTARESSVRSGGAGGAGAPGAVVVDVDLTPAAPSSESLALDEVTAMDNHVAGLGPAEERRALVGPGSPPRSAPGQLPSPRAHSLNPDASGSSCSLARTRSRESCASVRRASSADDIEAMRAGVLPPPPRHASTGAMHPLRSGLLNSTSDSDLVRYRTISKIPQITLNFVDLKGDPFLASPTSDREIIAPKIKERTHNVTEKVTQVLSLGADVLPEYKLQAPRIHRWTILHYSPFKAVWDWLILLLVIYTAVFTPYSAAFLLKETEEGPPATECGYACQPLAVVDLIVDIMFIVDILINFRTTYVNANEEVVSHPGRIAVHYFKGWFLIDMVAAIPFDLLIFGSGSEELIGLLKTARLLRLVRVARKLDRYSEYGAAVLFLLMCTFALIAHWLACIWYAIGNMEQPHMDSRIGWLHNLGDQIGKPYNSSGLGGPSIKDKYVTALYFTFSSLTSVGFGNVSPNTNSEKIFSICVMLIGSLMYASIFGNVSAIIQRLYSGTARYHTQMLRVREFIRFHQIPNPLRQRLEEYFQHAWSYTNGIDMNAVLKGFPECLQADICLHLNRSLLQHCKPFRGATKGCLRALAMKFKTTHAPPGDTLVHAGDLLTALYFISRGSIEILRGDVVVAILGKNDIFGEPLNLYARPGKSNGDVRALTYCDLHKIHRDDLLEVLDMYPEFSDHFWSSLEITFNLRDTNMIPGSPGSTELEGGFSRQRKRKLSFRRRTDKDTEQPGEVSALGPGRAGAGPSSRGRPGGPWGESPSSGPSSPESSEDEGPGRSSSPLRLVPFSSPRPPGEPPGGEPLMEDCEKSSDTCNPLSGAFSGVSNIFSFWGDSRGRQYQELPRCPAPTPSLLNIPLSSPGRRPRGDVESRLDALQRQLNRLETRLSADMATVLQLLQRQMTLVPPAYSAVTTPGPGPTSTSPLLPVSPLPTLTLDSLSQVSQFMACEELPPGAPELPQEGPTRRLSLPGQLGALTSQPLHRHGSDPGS

| Structure (SMILES) | hERG current change (%, negative = inhibition) at 1uM [%] |
| --- | --- |
| CC1CCCN(C(=O)CCCNC(=O)c2ccc(Cl)cc2)C1 (stereo not drawn) | 11.3 |
| OCCSc1nc(-c2ccccc2)nc2c1CCC2 | 18.3 |
| Cc1cc(C)n(C(=O)C(C(=O)c2ccccc2)C(C)C)n1 (stereo not drawn) | 15.9 |
| Cc1ccsc1C(=O)OCC(=O)NC1CCCCC1C (stereo not drawn) | 8.9 |
| COc1ccc2[nH]cc(CCN3C(=O)CCC3=O)c2c1 | 9.47 |
| Cc1ccc(-c2nnc(N3CCN(C(=O)CN4C(=O)c5ccccc5C4=O)CC3)c3ccccc23)cc1 | 9.78 |
| CC1CCCN(C(=O)c2cccc(S(=O)(=O)N3CCCc4ccccc43)c2)C1 (stereo not drawn) | 6.96 |
| CC(OC(=O)Cc1n[nH]c(=O)c2ccccc12)C(=O)Nc1ccccc1[N+](=O)[O-] (stereo not drawn) | 12.3 |
| C1CCC(n2nnnc2CN2CCN(C3CCCC3)CC2)CC1 | 2.62 |
| COC(=O)/C(=C/c1ccco1)NC(=O)c1ccc(Br)o1 | 1.62 |
| Cc1ccc(C)c(N(CC(=O)NC2CCCC2)S(=O)(=O)c2ccccc2)c1 | 15.7 |
| COc1cc2c(cc1C=O)OC(C)C2 (stereo not drawn) | 19.8 |
| CCOc1cc(C(=O)NC)cc(OCC)c1OCC | 13.2 |
| CS(=O)(=O)c1ccc(Cl)c(NC(=O)C2CC(=O)N(Cc3ccco3)C2)c1 (stereo not drawn) | 17.5 |
| Cn1c(SCc2cccc(Br)c2)nnc1-c1ccccn1 | 5.9 |
| O=C(O)c1cc(-c2cccc(Cl)c2)nc2nc(N3CCCCC3)sc12 | 9.08 |
| CCOC(=O)c1cnc2c(Cl)cccc2c1NCCCN1CCOCC1 | -10.1 |
| NC(=O)C1CCN(C(=O)CSc2ccccn2)CC1 | 13.7 |
| NC1=NC(=O)/C(=C\C=C\c2ccccc2)S1 | 16.2 |

| Structure (SMILES) | hERG current change (%, negative = inhibition) at 1uM [%] |
| --- | --- |
| CC(c1ccccc1)N1CCC(CNC(=S)Nc2cccc(Cl)c2)C1 (stereo not drawn) | 14.6 |
| Cc1ccc(-c2c[n+](CC(=O)OCc3ccccc3)c3n2CCC3)cc1.[Br-] | -6.34 |
| c1ccc(CNc2nnnn2-c2ccccc2)cc1 | -8.7 |
| Cc1ccc2oc(=O)c3cnn(CC(=O)NCCC(C)C)c3c2c1 | 13.4 |
| O=S(=O)(NCC1CCCN(Cc2ccccc2O)C1)c1cccc2cccnc12 (stereo not drawn) | 9.31 |
| COc1ccc(CC(=O)N2CCN(C(=O)Cc3ccc(OC)cc3)CC2)cc1 | 2.55 |
| CN(C)c1cccc(C(=O)NCc2ccccc2Cl)c1 | 14.9 |
| Cc1ccccc1-n1c(-c2ccc([N+](=O)[O-])cc2)nc2ccccc2c1=O | 9.52 |
| C=CCn1c(SCC(N)=O)nc2sc3c(c2c1=O)CCC3 | 6.81 |
| Cc1ccc(Nc2cc(C)nc3c(C)cccc23)cc1 | -8.56 |
| CCOC(=O)CC1COCCN1C(=O)CCc1nnc(-c2ccsc2)o1 (stereo not drawn) | -7.2 |
| CCCN(CC(=O)Nc1ccccc1C)C(=O)c1cc(C)oc1C | 10.4 |
| CC1Sc2ccc(S(=O)(=O)CCC(=O)NC3CCCCC3C)cc2NC1=O (stereo not drawn) | 3.15 |
| O=C(CS(=O)(=O)c1cn(Cc2ccc(Cl)cc2)c2ccccc12)N1CCOCC1 | -0.722 |
| Cc1cccc2c(N=Nc3ccc(S(=O)(=O)Nc4ccc(Cl)cc4)cc3[N+](=O)[O-])c(O)[nH]c12 | 13.9 |
| CCc1ccc2[nH]c(C(=O)Nc3ccc(C)c(F)c3)cc2c1 | 16.7 |
| Cc1cc(NC(=O)Cn2cnc3c(nnn3-c3ccc(C)c(Cl)c3)c2=O)no1 | 3.73 |
| S=C(Nc1cccc(Cl)c1)N1CCOCC1 | -3 |
| Cc1ccc(Nc2nc(N)nc(CN3CCN(c4ccccc4)CC3)n2)cc1Cl | -10.8 |

| Structure (SMILES) | hERG current change (%, negative = inhibition) at 1uM [%] |
| --- | --- |
| NC(=O)CS(=O)(=O)c1nc2ccccc2n1CC(=O)N1CCCCC1 | 8.51 |
| O=C(O)CCC(=O)Nc1sc2c(c1C(=O)NC1CCCC1)CCCC2 | 3.19 |
| Cc1cccc(-c2noc(CCCOc3ccc(Cl)cc3Cl)n2)c1 | 4.69 |
| CC1CCN(S(=O)(=O)c2ccc3c(c2)N(CC(=O)NCCN2C(C)CCCC2C)C(=O)CS3)CC1 (stereo not drawn) | -4.99 |
| CCc1ccc(-n2c(SCc3cc(=O)n4cc(Br)ccc4n3)nc3[nH]ncc3c2=O)cc1 | 3.35 |
| CC(C)(C)C(=O)NC(=S)N1CCOCC1 | 14.3 |
| Nn1c(SCC(=O)Nc2cccc(S(N)(=O)=O)c2)nnc1C1CC1 | 15 |
| N#Cc1c(-c2ccccc2)nc(SCC(=O)N2c3ccccc3Sc3ccccc32)[nH]c1=O | 15.1 |
| CCOc1ccc(NC(=O)CSc2nnc(C(C)C)n2CC)cc1 | 14.6 |
| COc1cccc(CC(=O)OCC(=O)N(C)CC(=O)Nc2ccc(Cl)c(C(F)(F)F)c2)c1 | 15 |
| O=C(N/N=C/c1cccc([N+](=O)[O-])c1)c1nc2ccccc2c(=O)[nH]1 | 9.58 |
| O=C(COC(=O)CCS(=O)(=O)c1ccccc1)Nc1ccc(N2CCCCC2)cc1 | 12.6 |
| CCS(=O)(=O)c1ccc(O)c(NC(=O)Nc2ccccc2)c1 | 12.4 |
| CC1CCCC(C(=O)O)N1C(=O)CCSSCCC(=O)N1C(C)CCCC1C(=O)O (stereo not drawn) | 17 |
| Cc1cc(C)nc(Nc2ccc(Cl)cc2C)n1.Cl | 16.7 |
| COc1ccc(/C=N/N=C2/NC(=O)C(CC(=O)O)S2)cc1OCc1ccc(Cl)cc1 (stereo not drawn) | -2.33 |
| CS(=O)(=O)N(CC(=O)N1CCN(Cc2ccccc2)CC1)c1cccc(F)c1 | -9.13 |
| Cl.O=S(=O)(NC1CCN(Cc2ccccc2)CC1)c1ccc2ccccc2c1 | 4.69 |
| O=C(N/N=C/c1c[nH]c2ccccc12)c1cccc([N+](=O)[O-])c1 | 8.58 |
